According to the supplement of paper PMC12217912:
The other results are listed elsewhere or left out. The full chains were built here from the parent and the listed change. Inactive controls read about 0.05.

B1: TEV protease; numbered along this chain (parent)
chain: MGESLFKGPRDYNPISSSICHLTNESDGHTTSLYGIGFGPFIITNKHLFRRNNGTLVVQSLHGVFKVKDTTTLQQHLVDGRDMIIIRMPKDFPPFPQKLKFREPQREERICLVTTNFQTKSMSSMVSDTSCTFPSGDGIFWKHWIQTKDGQCGSPLVSTRDGFIVGIHSASNFTNTNNYFTSVPKNFMELLTNQEAQQWVSGWRLNADSVLWGGHKVFMVKPEEPFQPVKEATQL

Variants of: B1
Assay: raw area under fraction-flipped curve 0-4 h after induction (AUC4h, not background-subtracted), DNA-recorder readout of cleavage of the substrate (dimensionless); higher = more cleavage of the substrate by the protease variant
Conditions: temperature: 34 °C; time window: 0-4 h after rhamnose induction
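Further: Bxb1 expression induced with 0.2% (w/v) L-rhamnose at OD600 near 0.5, cultures sampled hourly, flipped fraction per protease–substrate barcode pair counted by paired-end Illumina sequencing.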

| Variant | area with substrate HNLYFQS | area with substrate INLYFQS | area with substrate LNLYFQS | area with substrate MNLYFQS | area with substrate PNLYFQS | area with substrate TNLYFQS | area with substrate WNLYFQS | area with substrate GNLYFQS | area with substrate KNLYFQS | area with substrate NNLYFQS | area with substrate SNLYFQS | area with substrate VNLYFQS |
| --- | --- | --- | --- | --- | --- | --- | --- | --- | --- | --- | --- | --- |
| K120L | 0.0452 | 0.0642 | 0.0685 | 0.0259 | 0.0664 | 0.0567 | 0.0653 |  |  |  |  |  |
| E224T |  | 0.0653 | 0.0668 | 0.0623 | 0.0676 | 0.0679 | 0.0485 | 0.0534 | 0.0599 | 0.0755 | 0.104 | 0.0559 |
| V64F | 0.0584 |  |  |  |  |  |  |  |  |  |  | 0.0763 |
| V200E |  |  |  |  | 0.09 | 0.0588 | 0.0843 |  |  | 0.0614 |  |  |
